Sequences with one replicate were seen in a single cluster, so their values are uncertain.
Each sequence was assayed on ATP (assay: switch fluorescence ratio, 500 uM ATP over buffer (Cy3 cluster intensity, sum of 5 cycles each) (fold (ratio)); higher = stronger signal-on switching upon ATP binding; sequences stand for … in TCGTCGGCAGCGTCAGATGTGTATAAGAGACAGTTTTTTTTTTTTTTTTTTTTTTTTT…TC). Settings: aptamer strand: ATP DNA aptamer (quencher-CACCTGGGGGAGTATTGCGGAGGAAGG + anchor), 100 nM annealed; ATP concentration: 500 uM; one replicate.
Method in brief: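 For every switch-domain sequence, the fluorescence ratio is the mean of per-cluster values, each being summed target-cycle Cy3 intensity over summed buffer-cycle Cy3 intensity. Clusters outside 100-1000 RFU were excluded. On a modified Illumina MiSeq flow-cell, the Cy3-labelled switching-strand clusters were annealed to 100 nM quencher-labelled ATP aptamer, imaged in selection buffer and then after 15 min with 500 uM ATP at 22 °C. Five such cycles were run, with NaOH stripping and re-annealing between them.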
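Further: ATP exposure 15 min at 22 °C before imaging.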

Sequence | switch fluorescence ratio
ATCCGGGGAT | 1.01
ATCCGGGGCG | 1.01
ATCCGGGGGT | 0.993
ATCCGGTCGT | 0.977
ATCCGTCGCG | 1.02
ATCCGTCTGG | 1.01
ATCCTCGT | 0.983
ATCCTGCGGT | 0.995
ATCCTGGAAT | 0.96
ATCCTGTTCG | 0.974
ATCCTTGGCA | 1.04
ATCGAAGCGC | 1.05
ATCGACACAA | 1.88
ATCGACAGAT | 1.01
ATCGACAGCG | 0.971
ATCGATATTA | 0.974
ATCGATCAAA | 1.01
ATCGATCGA | 0.925
ATCGATGTTA | 0.98
ATCGCAAGTT | 1.05
ATCGCACAAT | 1.16
ATCGCATTAT | 1.77
ATCGCCCGGA | 0.997
ATCGCCCGTG | 1.07
ATCGCGGCTA | 1.01
ATCGCTCGCG | 1.03

Sequence | switch fluorescence ratio
ATCGCTGAAA | 0.982
ATCGGAACCG | 1
ATCGGACTAT | 1.04
ATCGGCAGCT | 1.02
ATCGGCGTGG | 1.02
ATCGGGGCCC | 0.976
ATCGGGTACT | 1.03
ATCGGTAAGA | 0.987
ATCGGTAAGT | 1.01
ATCGGTATCG | 0.957
ATCGGTGCG | 1.02
ATCGGTTAAG | 0.974
ATCGGTTGCG | 0.944
ATCGGTTTCC | 1.01
ATCGTAAATG | 0.995
ATCGTACCAC | 1.01
ATCGTCGGAA | 1.04
ATCGTGCGTG | 0.988
ATCGTGG | 0.997
ATCGTTAGG | 0.995
ATCGTTTAAC | 0.955
ATCGTTTGAC | 1.03
ATCGTTTTGC | 1.01
ATCTAATGGT | 0.969
ATCTAATTCA | 0.967
ATCTACCTGG | 1.07

Sequence | switch fluorescence ratio
ATCTCAGCTG | 0.989
ATCTCATCCG | 1.11
ATCTCCAGGC | 1.17
ATCTCGATTA | 0.953
ATCTCGCCGC | 1.08
ATCTCGTGAG | 1
ATCTCTGAA | 1.03
ATCTCTTTGT | 0.997
ATCTGAGGGT | 0.976
ATCTGGGCTT | 0.956
ATCTGGTATT | 1.04
ATCTGGTGAC | 1.01
ATCTGGTGCG | 1.05
ATCTGGTTTT | 1.01
ATCTGTAATG | 1.01
ATCTGTGGGT | 0.989
ATCTGTGTGC | 0.988
ATCTTATCTG | 1.01
ATCTTCCGGT | 1.12
ATCTTCCTG | 1.14
ATCTTGAGGT | 0.987
ATCTTGCACG | 1.03
ATCTTGCTGT | 1
ATCTTGGGAT | 1
ATCTTTCCGA | 1.13
ATGAAAATAA | 0.955

Sequence | switch fluorescence ratio
ATGAAAGACA | 0.994
ATGAAAGACT | 1.01
ATGAAAGGGC | 1
ATGAAAGTAA | 1.03
ATGAACAGCA | 1.02
ATGAACCTAG | 1.06
ATGAACGCG | 0.986
ATGAACTTTA | 1.02
ATGAAGAACC | 0.991
ATGAAGTGTT | 0.976
ATGAATCAC | 0.972
ATGAATGGCT | 0.938
ATGACCGATG | 1.01
ATGACGTGTC | 0.915
ATGACTAATT | 0.997
ATGACTTGCA | 1.06
ATGAGAAT | 0.977
ATGAGAGGCT | 1.05
ATGAGAGTCC | 1.02
ATGAGCAGTC | 1.36
ATGAGCTAGA | 0.96
ATGAGGTCGA | 0.923
ATGAGTAACA | 0.999
